Values marked as one replicate rest on one cluster of the flow cell; about a third of the high ones do not repeat.

The record followed here is the supplement of paper PMC10126150.

The subject of the data set is ATP. Put plainly: switch fluorescence ratio, 500 uM ATP over buffer (Cy3 cluster intensity, sum of 5 cycles each) (fold (ratio)); higher = stronger signal-on switching upon ATP binding; sequences stand for … in TCGTCGGCAGCGTCAGATGTGTATAAGAGACAGTTTTTTTTTTTTTTTTTTTTTTTTT…TC. Particulars: aptamer strand: ATP DNA aptamer (quencher-CACCTGGGGGAGTATTGCGGAGGAAGG + anchor), 100 nM annealed; ATP concentration: 500 uM; one replicate. An outline of the steps: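 Five buffer/ATP imaging cycles were run on Cy3-labelled switching-strand clusters on a modified Illumina MiSeq flow-cell, with NaOH stripping and re-annealing between cycles. In each cycle, clusters annealed to 100 nM quencher-labelled ATP aptamer were imaged in selection buffer, then after 15 min with 500 uM ATP at 22 °C. Per cluster, the fluorescence ratio is summed target-cycle over summed buffer-cycle Cy3 intensity, averaged per switch-domain sequence. Only clusters within 100-1000 RFU were kept.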
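Note: ATP exposure 15 min at 22 °C before imaging.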

Consider GAATTACTGC, for which the switch fluorescence ratio is 0.972.
In the case of GGATGCTCTC, the switch fluorescence ratio worked out at 1.
CAAAAGACAG: the switch fluorescence ratio was 1.06.
Then CTGCCTGTTA, with 0.973; and CATACAGAGA, with 0.924.
As for AAAAACAGC, the switch fluorescence ratio came to 0.976.
The result for TATCAAACAT reads 1.03.
The result for GACTTCAGT reads 0.994; that for TCCAGTTATG, 0.996.
Take TTAATTGGCT: the switch fluorescence ratio worked out at 0.947.
As for ACAAAATGAA, the switch fluorescence ratio stood at 0.937.
As to AGTTGCTAAT, the switch fluorescence ratio came to 0.971.
In the case of TCATATGTGA, the switch fluorescence ratio worked out at 0.966.
For TTCTAGAAGG, the switch fluorescence ratio worked out at 1.02.
For GATTGACT, the switch fluorescence ratio was determined as 1.02.
On to TGATAAGGGC, for which the switch fluorescence ratio is 1.02.
Turning to CCCGATTTAT, the switch fluorescence ratio turned out to be 1.08.
Consider TATGGTTGTT, for which the switch fluorescence ratio came out at 0.968.
Regarding ATCGTCGAGA, the switch fluorescence ratio came out at 1.01.
GCACGGCGCA: the switch fluorescence ratio turned out to be 0.995.
Take CCGGGATAAG: the switch fluorescence ratio turned out to be 1.01.
In the case of TAATCTTTCT, the switch fluorescence ratio is 1.01.
Consider ATTCTCATG, for which the switch fluorescence ratio is 1.02.
As to GCCAAGTCCC, the switch fluorescence ratio amounted to 1.04.
Take TTATGCCACT: the switch fluorescence ratio was 0.986.
Then TATTTTTGTC, with 1.02; and ACGGAGCTCT, with 1.24; and CACGAGCTGT, with 1.04.
The result for TACTGTTGAG reads 0.977.
As for CCTCATATCG, the switch fluorescence ratio turned out to be 1.06.
Take GCAGAGCGCG: the switch fluorescence ratio was determined as 0.994.
As to TAATGGTCA, the switch fluorescence ratio was 1.06.
Turning to ATTCTAAGGT, the switch fluorescence ratio came to 0.991.
Turning to ATGTGGGACT, the switch fluorescence ratio stood at 1.02.
The result for GAAAGTGTGC reads 1.01; that for GAACGATTT, 1.
Turning to TAAGTGTGCG, the switch fluorescence ratio is 0.879.
For CAGATGAGAT, the switch fluorescence ratio came to 0.98.
On to AGACTGTCAG, for which the switch fluorescence ratio was found to be 1.02.
For TACATTGCTT, the switch fluorescence ratio worked out at 0.981.
For CCGTGTGCCA, the switch fluorescence ratio was 1.08.
The result for ATACAAGTAA reads 1.08; that for ATAAGATTCC, 1.19.
For the sequence GTGATGCCCG, the switch fluorescence ratio is 0.985.
Regarding CTCACGGCTA, the switch fluorescence ratio is 1.15.
Turning to AGTCCGGGGG, the switch fluorescence ratio was determined as 1.05.
As to GGGAGTTTTT, the switch fluorescence ratio is 0.987.
Then GGCAGAATT, with 1.01.
The result for GGTACGCCCT reads 1.02; that for GGTGGGTAAC, 0.959.
On to TGACATCGCT, for which the switch fluorescence ratio stood at 0.968.
Then GTTTGGAT, with 1.02; and GGCATTAGAC, with 1.06; and GAGGCCAAGT, with 0.979.
Then TCGCACACGT, with 1.22; and TCATGTTCCG, with 0.975.
As for GGAGTACAGC, the switch fluorescence ratio stood at 1.08.
For the sequence CTCGAAGTCT, the switch fluorescence ratio turned out to be 0.976.
Turning to GCGTGTTCA, the switch fluorescence ratio came to 1.
Regarding ACACTTGCAG, the switch fluorescence ratio came to 0.986.
With ATATGTATCG, the switch fluorescence ratio is 1.
The result for GGTGCTCCA reads 1.
For the sequence CACAAGTAAC, the switch fluorescence ratio worked out at 1.12.
For CATCCGGCGT, the switch fluorescence ratio is 1.52.
TGCTTACCTG: the switch fluorescence ratio stood at 1.01.
Then CTCGGTGTCG, with 1.02.
For the sequence ACCCACCTCA, the switch fluorescence ratio amounted to 1.34.
